Test results from a collection of fitness landscapes (doi:10.1126/science.1257360).
The list shows a part of the results.

B1: PhoQ; a variant is named by its letters at X, in order, P23837 (parent)
chain: MKKLLRLFFPLSLRVRFLLATAAVVLVLSLAYGMVALIGYSVSFDKTTFRLLRGESNLFYTLAKWENNKLHVELPENIDKQSPTMTLIYDENGQLLWAQRDVPWLMKMIQPDWLKSNGFHEIEADVNDTSLLLSGDHSIQQQLQEVREDDDDAEMTHSVAVNVYPATSRMPKLTIVVVDTIPVELKSSYMVWSWFIYVLSANLLLVIPLLWVAAWWSLRPIEALAKEVRELEEHNRELLNPATTRELTSLVRNLNRLLKSERERYDKYRTTLTDLTHSLKTPLXXLQXXLRSLRSEKMSVSDAEPVMLEQISRISQQIGYYLHRASMRGGTLLSRELHPVAPLLDNLTSALNKVYQRKGVNISLDISPEISFVGEQNDFVEVMGNVLDNACKYCLEFVEISARQTDEHLYIVVEDDGPGIPLSKREVIFDRGQRVDTLRPGQGVGLAVAREITEQYEGKIVAGESMLGGARMEVIFGRQHSAPKDE

Variants of: B1
Assay: enrichment ratio after two sorts for PhoP signalling (ratio (wild type AVST 3.29)); higher = more functional
Details: with PhoP (E. coli)

| Variant | enrichment ratio |
| --- | --- |
| MHWW | ≤ 0.25 |
| VSRE | ≤ 0.25 |
| NWYC | ≤ 0.25 |
| VYDF | ≤ 0.25 |
| ENFG | ≤ 0.25 |
| TPFP | ≤ 0.25 |
| QRMP | ≤ 0.25 |
| HGLV | 7.08 |
| PPTW | ≤ 0.25 |
| DNKL | ≤ 0.25 |
| GMIV | 0.55 |
| GQRY | ≤ 0.25 |
| FWCY | ≤ 0.25 |
| SLFM | ≤ 0.25 |
| QKCF | ≤ 0.25 |
| RNSF | ≤ 0.25 |
| AGFV | 5.65 |
| DTLG | ≤ 0.25 |
| LYVW | ≤ 0.25 |
| YQQV | ≤ 0.25 |
| IPGG | ≤ 0.25 |
| DEFC | ≤ 0.25 |
| AAFK | ≤ 0.25 |
| GSGG | ≤ 0.25 |

| Variant | enrichment ratio |
| --- | --- |
| ISNC | ≤ 0.25 |
| NDIW | ≤ 0.25 |
| MTPQ | ≤ 0.25 |
| DCAY | ≤ 0.25 |
| STDH | ≤ 0.25 |
| SFDG | ≤ 0.25 |
| KCDC | ≤ 0.25 |
| WRDL | ≤ 0.25 |
| HCTA | ≤ 0.25 |
| TTLW | ≤ 0.25 |
| GIPT | ≤ 0.25 |
| SWMV | ≤ 0.25 |
| KSIV | ≤ 0.25 |
| QHKG | ≤ 0.25 |
| LRHT | ≤ 0.25 |
| INDQ | ≤ 0.25 |
| PKQW | ≤ 0.25 |
| PRQK | ≤ 0.25 |
| QCYS | ≤ 0.25 |
| RTMS | ≤ 0.25 |
| RGDN | ≤ 0.25 |
| TKHD | ≤ 0.25 |
| VNKA | ≤ 0.25 |
| QSLP | 0.302 |

| Variant | enrichment ratio |
| --- | --- |
| AGGY | 10 |
| AMQY | ≤ 0.25 |
| QDVK | ≤ 0.25 |
| RSWG | ≤ 0.25 |
| INCQ | ≤ 0.25 |
| RPAL | ≤ 0.25 |
| PMHL | 0.525 |
| HMYL | ≤ 0.25 |
| MAND | ≤ 0.25 |
| CLCG | ≤ 0.25 |
| VKYY | ≤ 0.25 |
| VDTS | ≤ 0.25 |
| DWCN | ≤ 0.25 |
| PGYY | ≤ 0.25 |
| VYLL | ≤ 0.25 |
| HWFR | ≤ 0.25 |
| EDVN | ≤ 0.25 |
| LMQY | ≤ 0.25 |
| SCPY | ≤ 0.25 |
| GDKI | ≤ 0.25 |
| ACLW | 4.69 |
| WVAG | ≤ 0.25 |
| WWVQ | ≤ 0.25 |
| VDVH | 4.55 |

| Variant | enrichment ratio |
| --- | --- |
| QDLY | ≤ 0.25 |
| CNYG | ≤ 0.25 |
| DHGF | ≤ 0.25 |
| DPGL | ≤ 0.25 |
| RYHC | ≤ 0.25 |
| VHSP | ≤ 0.25 |
| YFHV | ≤ 0.25 |
| TLGL | 6.6 |
| QTPF | ≤ 0.25 |
| PPLT | ≤ 0.25 |
| HTNF | ≤ 0.25 |
| YQNI | ≤ 0.25 |
| HMLL | ≤ 0.25 |
| LLLN | ≤ 0.25 |
| WDIH | ≤ 0.25 |
| LGSK | ≤ 0.25 |
| EKGN | ≤ 0.25 |
| GTHY | ≤ 0.25 |
| NPRK | ≤ 0.25 |
| HWDY | ≤ 0.25 |
| YEYI | ≤ 0.25 |
| FMMY | ≤ 0.25 |
| VYHM | ≤ 0.25 |
| GPHK | ≤ 0.25 |

| Variant | enrichment ratio |
| --- | --- |
| KAKS | ≤ 0.25 |
| HHFY | ≤ 0.25 |
| NCTV | ≤ 0.25 |
| SVAN | 6.73 |
| PFMG | ≤ 0.25 |
| YSKR | ≤ 0.25 |
| AMHH | ≤ 0.25 |
| YWCS | ≤ 0.25 |
| VSRA | ≤ 0.25 |
| NANH | ≤ 0.25 |
| RECG | ≤ 0.25 |
| KVDC | ≤ 0.25 |
| YLPH | ≤ 0.25 |
| HPHI | ≤ 0.25 |
| SFEY | ≤ 0.25 |
| FVPS | ≤ 0.25 |
| TLNQ | ≤ 0.25 |
| VFTS | ≤ 0.25 |
| MLLS | ≤ 0.25 |
| IECW | ≤ 0.25 |
| DWYD | ≤ 0.25 |
| CVIP | ≤ 0.25 |
| DPPD | ≤ 0.25 |
| PHFI | ≤ 0.25 |

| Variant | enrichment ratio |
| --- | --- |
| NSRV | ≤ 0.25 |
| VWLC | ≤ 0.25 |
| NPPV | ≤ 0.25 |
| AAAV | ≤ 0.25 |
| QQAC | ≤ 0.25 |
| EMYY | ≤ 0.25 |
| YKIQ | ≤ 0.25 |
| REQV | ≤ 0.25 |
| HYPY | ≤ 0.25 |
| NIQN | ≤ 0.25 |
| AFML | ≤ 0.25 |
| EIWD | ≤ 0.25 |
| PSLN | ≤ 0.25 |
| GFIP | ≤ 0.25 |
| VCMN | 2.35 |
| HAPW | 0.597 |
| VCWR | ≤ 0.25 |
| IVHG | ≤ 0.25 |
| QAFW | 1.15 |
| NSDI | ≤ 0.25 |
| EHMF | ≤ 0.25 |
| TANG | 8.2 |
| TASD | 0.376 |
| IFSI | ≤ 0.25 |

| Variant | enrichment ratio |
| --- | --- |
| AGLF | 11.1 |
| LVHH | ≤ 0.25 |
| QFKK | ≤ 0.25 |
| RGPN | ≤ 0.25 |
| RFVT | ≤ 0.25 |
| ERNA | ≤ 0.25 |
| RQIV | ≤ 0.25 |
| VWYR | ≤ 0.25 |
| VPCQ | ≤ 0.25 |
| LFDK | ≤ 0.25 |
| STKD | ≤ 0.25 |
| SCEE | ≤ 0.25 |
| YNWW | ≤ 0.25 |
| PYKN | ≤ 0.25 |
| HEKK | ≤ 0.25 |
| IISE | ≤ 0.25 |
| LDEY | ≤ 0.25 |
| LSEL | ≤ 0.25 |
| AGRV | ≤ 0.25 |
| NKHV | ≤ 0.25 |
| HLLR | ≤ 0.25 |
| MYWE | ≤ 0.25 |
| FRHF | ≤ 0.25 |
| AMQD | ≤ 0.25 |

| Variant | enrichment ratio |
| --- | --- |
| VRES | ≤ 0.25 |
| NMHM | ≤ 0.25 |
| LRLQ | ≤ 0.25 |
| SFIW | ≤ 0.25 |
| YWRY | ≤ 0.25 |
| VPKM | ≤ 0.25 |
| GKQH | ≤ 0.25 |
| PPMW | ≤ 0.25 |
| MENW | ≤ 0.25 |
| DAFP | ≤ 0.25 |
| ILRH | ≤ 0.25 |
| VTQL | ≤ 0.25 |
| GFNI | ≤ 0.25 |
| TCMM | 11.8 |
| TDAF | ≤ 0.25 |
| VPNY | ≤ 0.25 |
| ASFW | ≤ 0.25 |
| NLKC | ≤ 0.25 |
| EDPM | ≤ 0.25 |
| TMAN | 18.9 |
| EVSW | ≤ 0.25 |
| FITA | ≤ 0.25 |
| TSGT | 9.89 |
| KGWM | ≤ 0.25 |

| Variant | enrichment ratio |
| --- | --- |
| MTHK | ≤ 0.25 |
| PWGK | ≤ 0.25 |
| LIRV | ≤ 0.25 |
| YPRE | ≤ 0.25 |
| GKTS | ≤ 0.25 |
| NPVH | ≤ 0.25 |
| MSRM | ≤ 0.25 |
| PAHH | ≤ 0.25 |
| WQPC | ≤ 0.25 |
| HCDD | ≤ 0.25 |
| NVDM | ≤ 0.25 |
| FINR | ≤ 0.25 |
| NDYF | ≤ 0.25 |
| QEAH | ≤ 0.25 |
| PTDP | ≤ 0.25 |
| QSHN | ≤ 0.25 |
| SIMK | 28.9 |
| AYPP | ≤ 0.25 |
| EEAD | ≤ 0.25 |
| LTAP | ≤ 0.25 |
| FADW | ≤ 0.25 |
| TPPS | ≤ 0.25 |
| STQE | ≤ 0.25 |
| FTCA | ≤ 0.25 |

| Variant | enrichment ratio |
| --- | --- |
| QYGG | ≤ 0.25 |
| YGFT | ≤ 0.25 |
| HWRI | ≤ 0.25 |
| KQVP | ≤ 0.25 |
| LLVW | ≤ 0.25 |
| NMDQ | ≤ 0.25 |
| AQSM | 10.4 |
| MMPT | ≤ 0.25 |
| IRYR | ≤ 0.25 |
| AFSD | ≤ 0.25 |
| VTPF | ≤ 0.25 |
| YKDS | ≤ 0.25 |
| VYHQ | ≤ 0.25 |
| KLVG | ≤ 0.25 |
| HWND | ≤ 0.25 |
| QHFG | 1.55 |
| QSFY | 10 |
| ELCV | ≤ 0.25 |
| GYQN | ≤ 0.25 |
| YFLY | ≤ 0.25 |
| IPVK | ≤ 0.25 |
| APVS | ≤ 0.25 |
| LDPV | ≤ 0.25 |
| IENR | ≤ 0.25 |

| Variant | enrichment ratio |
| --- | --- |
| ATEF | ≤ 0.25 |
| FWRQ | ≤ 0.25 |
| KSDP | ≤ 0.25 |
| AKKL | ≤ 0.25 |
| MTTK | ≤ 0.25 |
| WLKW | ≤ 0.25 |
| FCCT | ≤ 0.25 |
| QETL | ≤ 0.25 |
| RRRK | ≤ 0.25 |
| RKYD | ≤ 0.25 |
| VPPM | ≤ 0.25 |
| RMMD | ≤ 0.25 |
| SQEV | ≤ 0.25 |
| KMWK | ≤ 0.25 |
| EIIG | ≤ 0.25 |
| HWQK | ≤ 0.25 |
| VATS | ≤ 0.25 |
| GIRV | ≤ 0.25 |
| ENDG | ≤ 0.25 |
| SNAS | 8.84 |
| STNG | 10.8 |
| CKAF | ≤ 0.25 |
| QTAI | ≤ 0.25 |
| ILGW | ≤ 0.25 |

| Variant | enrichment ratio |
| --- | --- |
| AVKP | ≤ 0.25 |
| WMHM | ≤ 0.25 |
| HGDR | ≤ 0.25 |
| DTDY | ≤ 0.25 |
| KDWV | ≤ 0.25 |
| GMMP | ≤ 0.25 |
| HWRN | ≤ 0.25 |
| QYRR | ≤ 0.25 |
| TDHL | ≤ 0.25 |
| KELE | ≤ 0.25 |
| FNKM | ≤ 0.25 |
| KLEH | ≤ 0.25 |
| IQVK | ≤ 0.25 |
| HSWV | ≤ 0.25 |
| LVIH | ≤ 0.25 |
| FQPW | ≤ 0.25 |
| YPSA | ≤ 0.25 |
| IETS | ≤ 0.25 |
| YWKP | ≤ 0.25 |
| IYWW | ≤ 0.25 |
| VHVA | ≤ 0.25 |
| TRYA | ≤ 0.25 |
| PWSD | ≤ 0.25 |
| GAIE | ≤ 0.25 |

| Variant | enrichment ratio |
| --- | --- |
| QLCA | ≤ 0.25 |
| LPDQ | ≤ 0.25 |
| LAER | ≤ 0.25 |
| SAVG | 0.763 |
| PRQR | ≤ 0.25 |
| NPMM | ≤ 0.25 |
| TSWD | 2.13 |
| VVIH | ≤ 0.25 |
| GLYV | ≤ 0.25 |
| KVNP | ≤ 0.25 |
| RYPA | ≤ 0.25 |
| WNQK | ≤ 0.25 |
| QKSY | ≤ 0.25 |
| HHVW | ≤ 0.25 |
| VCNQ | ≤ 0.25 |
| VEQI | ≤ 0.25 |
| VPPA | ≤ 0.25 |
| SNWR | ≤ 0.25 |
